Results taken from PubChem BioAssay AID1460 (National Center for Advancing Translational Sciences (NCATS), 2008).
The campaign covered roughly 270,000 compounds. About 5,800 (2.1%) were called active. This list was built around the results that the source calls inconclusive (neither active nor inactive); the mix of calls is not that of the screen. Calls follow the shape of the dose curve; as a rule, active = well fitted inhibition curve with a large enough effect; inconclusive = small, poorly fitted or top-dose-only effect; inactive = flat fitted curve, though single readings scatter. Where the call is inconclusive, the potency comes from a doubtful curve fit.

These molecules were tested against Microtubule-associated protein tau (Homo sapiens) (UniProt P10636) (assay: qHTS for Inhibitors of Tau Fibril Formation, Thioflavin T Binding). Settings: recombinant tau K18 P301L, heparin-induced fibrillization, ThT fluorescence; series mostly up to 57.4 µM.
In short: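 Using a mix of unlabeled (15 uM) and Alexa 594-labeled (0.24 uM) tau K18 P301L, heparin-triggered fibrillization over 6 hr at 37 C was scored by ThT fluorescence.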
Also: nearly all actives have a fitted effect of over 55% in size.
Potency is read from the fitted curve at half-maximal effect; tags tell the direction and shape of the fitted curve.

Sequence of UniProt P10636 (P10636 whole entry, looked up): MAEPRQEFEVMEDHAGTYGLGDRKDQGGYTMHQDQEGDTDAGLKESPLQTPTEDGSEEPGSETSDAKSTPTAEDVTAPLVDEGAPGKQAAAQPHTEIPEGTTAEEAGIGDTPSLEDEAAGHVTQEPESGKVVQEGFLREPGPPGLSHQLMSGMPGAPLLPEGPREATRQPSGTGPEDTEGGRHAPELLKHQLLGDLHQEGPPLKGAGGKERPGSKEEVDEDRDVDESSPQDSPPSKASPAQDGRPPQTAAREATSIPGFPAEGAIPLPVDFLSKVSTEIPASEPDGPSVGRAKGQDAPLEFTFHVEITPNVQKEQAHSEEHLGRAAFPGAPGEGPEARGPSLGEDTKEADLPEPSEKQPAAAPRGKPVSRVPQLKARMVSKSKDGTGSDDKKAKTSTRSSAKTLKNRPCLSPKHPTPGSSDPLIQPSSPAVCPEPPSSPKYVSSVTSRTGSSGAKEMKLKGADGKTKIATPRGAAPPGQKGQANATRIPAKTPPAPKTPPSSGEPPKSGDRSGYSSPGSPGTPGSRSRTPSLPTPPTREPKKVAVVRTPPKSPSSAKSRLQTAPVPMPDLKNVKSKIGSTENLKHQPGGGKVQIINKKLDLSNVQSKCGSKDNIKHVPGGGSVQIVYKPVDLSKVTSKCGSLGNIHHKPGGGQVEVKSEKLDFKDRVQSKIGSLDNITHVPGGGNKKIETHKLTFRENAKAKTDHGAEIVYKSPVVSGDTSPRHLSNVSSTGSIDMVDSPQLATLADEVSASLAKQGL

Compound | Potency
COc1ccc(NC(=O)c2cc3ccccn3n2)cc1 | inconclusive: 31.6 µM [inhibitor, partial curve, poor fit]
Cc1nc(Nc2ccc3c(c2)OCCO3)c2c(C)c(C)sc2n1 | inconclusive: 11.2 µM [inhibitor, partial curve]
O=c1[nH]c2cc3c(cc2cc1C(c1nnnn1CC1CCCO1)N1CCCCCC1)OCO3 (stereo not drawn) | inconclusive: 14.1 µM [inhibitor, partial curve]
CC(C)(C)c1ccc(O)c(N)c1 | inconclusive: 20 µM [inhibitor, partial curve, poor fit]
CC(=O)Nc1ccc(S(=O)(=O)Nc2ccc(-c3cn4c(C)csc4n3)cc2)cc1 | inconclusive: 17.8 µM [inhibitor, partial curve, poor fit]
COc1cccc(NC(=O)C2CC(=O)n3cnnc3S2)c1 (stereo not drawn) | inconclusive: 35.5 µM [inhibitor, partial curve]
COc1cc(C=O)ccc1OCCCOc1ccc([N+](=O)[O-])cc1 | inconclusive: 31.6 µM [inhibitor, single point]
Cc1ccc(C)c(N(CC(=O)NCCSCc2ccco2)S(C)(=O)=O)c1 | inconclusive: 31.6 µM [inhibitor, single point]
CC/C(C)=N\Nc1nc(-c2cc3cc(OC)ccc3oc2=O)cs1 | active: 22.4 µM
CC(=O)c1c(C)[nH]c(C(=O)COC(=O)c2ccc3c(=O)n4c(nc3c2)CCC4)c1C | inconclusive: 0.631 µM [inhibitor, full curve]
CO/N=C/CC(=O)c1cnc(-c2ccc(Cl)cc2)s1 | inconclusive: 17.8 µM [inhibitor, partial curve]
CCN(CCCNC(=O)COc1cc(=O)n(C)c2ccccc12)c1cccc(C)c1 | inconclusive: 35.5 µM [inhibitor, partial curve]
CNc1nc(Sc2ccccc2)cc(C(F)(F)F)n1 | inconclusive: 0.282 µM [inhibitor, full curve, poor fit]
CCOC(=O)N1CCN(c2cc(C)nc3nc(C)nn23)CC1 | inactive
N#CC1=C(N)N(c2ccccc2)C2=C(C(=O)CCC2)C1c1ccccc1 (stereo not drawn) | inconclusive: 39.8 µM [inhibitor, single point]
Cc1ccccc1OCc1nc(-c2ccc(NC(=O)c3ccco3)cc2)no1 | inconclusive: 5.01 µM [inhibitor, partial curve]
Cc1ccc(-c2nnc(N3CCC(C)CC3)c3ccccc23)cc1 | inconclusive: 15.8 µM [inhibitor, partial curve]
CCc1nc2nc(C)cc(Nc3ccc(Br)cc3F)n2n1 | inactive
CCOC(=O)N1CCN(c2ccc(C(=O)c3cccc(F)c3)cc2)CC1 | inconclusive: 4.47 µM [inhibitor, partial curve]
COc1ccc(Nc2nc(NCC3CCCO3)nc(N)c2[N+](=O)[O-])cc1 (stereo not drawn) | inconclusive: 17.8 µM [inhibitor, single point]
COc1cc2nc(N3CCN(C(=O)C4CCCO4)CC3)nc(N)c2cc1OC (stereo not drawn) | inactive
Cc1ccc(-c2nn(-c3ccccc3)cc2/C=C2\SC(=S)N(CC(=O)O)C2=O)cc1 | active: 17.8 µM

Compound | Potency
Cc1oc2ccc(O)c(CN(C)Cc3ccccc3)c2c1C(=O)Nc1cccc(Cl)c1C | inconclusive: 4.47 µM [inhibitor, full curve]
COc1ccc(-c2noc(CSc3nnc(Cc4ccccc4)n3-c3cccc(C)c3)n2)cc1OC | inconclusive: 7.94 µM [inhibitor, partial curve]
Cc1ccc(NS(=O)(=O)c2cccc3nsnc23)cc1 | inconclusive: 10 µM [inhibitor, partial curve]
O=C(COc1ccccc1[N+](=O)[O-])Nc1ccccc1N1CCCC1 | inactive
CO/N=C(\C(=O)O)c1csc(NN=C(C)C)n1 | inconclusive: 20 µM [inhibitor, partial curve, poor fit]
O=C(CN1CCN(c2ccccc2F)CC1)Nc1ccc2c(c1)CCC2 | inconclusive: 20 µM [inhibitor, single point]
COc1ccc(OC)c2[nH]c(=O)c(CCNC(=S)NC(C)(C)C)cc12 | inactive
O=C1CC(N2CCOCC2)=NN1c1ccc([N+](=O)[O-])cc1 | active: 7.08 µM
Oc1ccc(O)cc1 | inactive
Cn1nc(C(C)(C)C)cc1C(=O)Sc1cccc(Br)c1 | inconclusive: 25.1 µM [inhibitor, partial curve]
CC(C)C(=O)Nc1ccc(C(=O)NNC(=S)NC(=O)c2cccs2)cc1 | inconclusive: 15.8 µM [inhibitor, partial curve]
O=C1c2ccccc2C(=O)c2c([N+](=O)[O-])ccc(O)c21 | inconclusive: 11.2 µM [inhibitor, partial curve, poor fit]
COc1ccc2c(c1)O[C@@H](c1ccc3c(c1)OCO3)[C@H](OC(=O)N[C@H](C)C1CCCCC1)C2=O | inconclusive: 0.355 µM [inhibitor, full curve, poor fit]
Cc1cccc(-c2cc3nc(C)c(C)c(NCCCn4ccnc4)n3n2)c1 | inconclusive: 14.1 µM [inhibitor, partial curve]
COCCn1c(C)cc(C2=NNC(=NC3CC3)SC2)c1C | inconclusive: 25.1 µM [inhibitor, partial curve]
C/C=C/c1ccc(OCCOc2cc(C=O)ccc2OC)c(OC)c1 | inconclusive: 12.6 µM [inhibitor, partial curve]
COC(=O)c1c(NC(=O)CSc2nnc(CNc3ccc(Cl)cc3)o2)sc(C)c1C | inconclusive: 15.8 µM [inhibitor, partial curve]
COc1ccc(-c2nc3ccc(NS(=O)(=O)c4ccccc4)cc3o2)cc1 | inconclusive: 14.1 µM [activator, partial curve]
COc1cccc(CNC(=O)c2cc3n(n2)CCCN(Cc2ccc(C)cc2)C3=O)c1OC | inactive
COc1cccc2cc(-c3ccccc3)c(=O)oc12 | inconclusive: 17.8 µM [inhibitor, partial curve]
Nc1c(C(=O)NCc2ccc3c(c2)OCO3)c2nc3ccccc3nc2n1CCCN1CCOCC1 | inconclusive: 39.8 µM [inhibitor, single point]
